Assay results: paper PMC9911399, “Two distinct binding modes provide the RNA-binding protein RbFox with extraordinary sequence specificity”
Positions count from the first letter of the chain named. The list shows a part of the results.

T1: RBFOX1 RRM (Homo sapiens, UniProt Q9NWB1 109-208)
T1 sequence: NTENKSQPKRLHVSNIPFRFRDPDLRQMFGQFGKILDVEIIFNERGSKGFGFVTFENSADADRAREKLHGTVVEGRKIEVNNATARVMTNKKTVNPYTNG

B1: AAAGUGG (DNA:RNA)
RNA: GGGAGACCGGAAUUCAGAUUGUCCAAAGUGGUUAAAUCCCGUCGUAGCCACCA
DNA 1: CAATCTGAATTCCGGTCTCCC
DNA 2: TGGTGGCTACGACGGGATT
B2: GGCUUUG (DNA:RNA)
RNA: B1 RNA with A25G, A26G, A27C, G28U, G30U
DNA 1: CAATCTGAATTCCGGTCTCCC
DNA 2: TGGTGGCTACGACGGGATT
B3: UCGAAAA (DNA:RNA)
RNA: GGGAGACCGGAAUUCAGAUUGUCCUCGAAAAUUAAAUCCCGUCGUAGCCACCA
DNA 1: CAATCTGAATTCCGGTCTCCC
DNA 2: TGGTGGCTACGACGGGATT
B4: CAGAGUG (DNA:RNA)
RNA: B1 RNA with A25C, A27G, G28A, U29G, G30U
DNA 1: CAATCTGAATTCCGGTCTCCC
DNA 2: TGGTGGCTACGACGGGATT
B5: UAACGUG (DNA:RNA)
RNA: B1 RNA with A25U, G28C, U29G, G30U
DNA 1: CAATCTGAATTCCGGTCTCCC
DNA 2: TGGTGGCTACGACGGGATT
B6: GCGAGCU (DNA:RNA)
RNA: B3 RNA with U25G, A29G, A30C, A31U
DNA 1: CAATCTGAATTCCGGTCTCCC
DNA 2: TGGTGGCTACGACGGGATT
B7: CAUGUUU (DNA:RNA)
RNA: B1 RNA with A25C, A27U, G30U, G31U
DNA 1: CAATCTGAATTCCGGTCTCCC
DNA 2: TGGTGGCTACGACGGGATT
B8: ACCGUAG (DNA:RNA)
RNA: B1 RNA with A26C, A27C, G30A
DNA 1: CAATCTGAATTCCGGTCTCCC
DNA 2: TGGTGGCTACGACGGGATT
B9: UUUAAAC (DNA:RNA)
RNA: B3 RNA with C26U, G27U, A31C
DNA 1: CAATCTGAATTCCGGTCTCCC
DNA 2: TGGTGGCTACGACGGGATT
B10: AAUAGUG (DNA:RNA)
RNA: B1 RNA with A27U, G28A, U29G, G30U
DNA 1: CAATCTGAATTCCGGTCTCCC
DNA 2: TGGTGGCTACGACGGGATT
B11: GCAAAGA (DNA:RNA)
RNA: B3 RNA with U25G, G27A, A30G
DNA 1: CAATCTGAATTCCGGTCTCCC
DNA 2: TGGTGGCTACGACGGGATT
B12: GCUUAGU (DNA:RNA)
RNA: B3 RNA with U25G, G27U, A28U, A30G, A31U
DNA 1: CAATCTGAATTCCGGTCTCCC
DNA 2: TGGTGGCTACGACGGGATT
B13: AUUCCAC (DNA:RNA)
RNA: B1 RNA with A26U, A27U, G28C, U29C, G30A, G31C
DNA 1: CAATCTGAATTCCGGTCTCCC
DNA 2: TGGTGGCTACGACGGGATT
B14: UGGUCUU (DNA:RNA)
RNA: B3 RNA with C26G, A28U, A29C, A30U, A31U
DNA 1: CAATCTGAATTCCGGTCTCCC
DNA 2: TGGTGGCTACGACGGGATT
B15: GUACGGC (DNA:RNA)
RNA: B1 RNA with A25G, A26U, G28C, U29G, G31C
DNA 1: CAATCTGAATTCCGGTCTCCC
DNA 2: TGGTGGCTACGACGGGATT
B16: CGCAUCU (DNA:RNA)
RNA: B1 RNA with A25C, A26G, A27C, G28A, G30C, G31U
DNA 1: CAATCTGAATTCCGGTCTCCC
DNA 2: TGGTGGCTACGACGGGATT
B17: CGCAGAC (DNA:RNA)
RNA: B3 RNA with U25C, C26G, G27C, A29G, A31C
DNA 1: CAATCTGAATTCCGGTCTCCC
DNA 2: TGGTGGCTACGACGGGATT
B18: CUACGUA (DNA:RNA)
RNA: B1 RNA with A25C, A26U, G28C, U29G, G30U, G31A
DNA 1: CAATCTGAATTCCGGTCTCCC
DNA 2: TGGTGGCTACGACGGGATT
B19: CAUGAUG (DNA:RNA)
RNA: B1 RNA with A25C, A27U, U29A, G30U
DNA 1: CAATCTGAATTCCGGTCTCCC
DNA 2: TGGTGGCTACGACGGGATT
B20: CUCUGAG (DNA:RNA)
RNA: B1 RNA with A25C, A26U, A27C, G28U, U29G, G30A
DNA 1: CAATCTGAATTCCGGTCTCCC
DNA 2: TGGTGGCTACGACGGGATT
B21: CUCAAUC (DNA:RNA)
RNA: B3 RNA with U25C, C26U, G27C, A30U, A31C
DNA 1: CAATCTGAATTCCGGTCTCCC
DNA 2: TGGTGGCTACGACGGGATT
B22: AGAGGGA (DNA:RNA)
RNA: B1 RNA with A26G, U29G, G31A
DNA 1: CAATCTGAATTCCGGTCTCCC
DNA 2: TGGTGGCTACGACGGGATT
B23: UCGUCGU (DNA:RNA)
RNA: B3 RNA with A28U, A29C, A30G, A31U
DNA 1: CAATCTGAATTCCGGTCTCCC
DNA 2: TGGTGGCTACGACGGGATT
B24: CAGCUGG (DNA:RNA)
RNA: B1 RNA with A25C, A27G, G28C
DNA 1: CAATCTGAATTCCGGTCTCCC
DNA 2: TGGTGGCTACGACGGGATT
B25: GACGGUA (DNA:RNA)
RNA: B1 RNA with A25G, A27C, U29G, G30U, G31A
DNA 1: CAATCTGAATTCCGGTCTCCC
DNA 2: TGGTGGCTACGACGGGATT
B26: AAACGGU (DNA:RNA)
RNA: B1 RNA with G28C, U29G, G31U
DNA 1: CAATCTGAATTCCGGTCTCCC
DNA 2: TGGTGGCTACGACGGGATT
B27: GCGUUAG (DNA:RNA)
RNA: B3 RNA with U25G, A28U, A29U, A31G
DNA 1: CAATCTGAATTCCGGTCTCCC
DNA 2: TGGTGGCTACGACGGGATT
B28: UGGGGUU (DNA:RNA)
RNA: B3 RNA with C26G, A28G, A29G, A30U, A31U
DNA 1: CAATCTGAATTCCGGTCTCCC
DNA 2: TGGTGGCTACGACGGGATT
B29: AAAUUCC (DNA:RNA)
RNA: B1 RNA with G28U, G30C, G31C
DNA 1: CAATCTGAATTCCGGTCTCCC
DNA 2: TGGTGGCTACGACGGGATT
B30: CAAGAUU (DNA:RNA)
RNA: B1 RNA with A25C, U29A, G30U, G31U
DNA 1: CAATCTGAATTCCGGTCTCCC
DNA 2: TGGTGGCTACGACGGGATT
B31: CUUCCCC (DNA:RNA)
RNA: GGGAGACCGGAAUUCAGAUUGUCCCUUCCCCUUAAAUCCCGUCGUAGCCACCA
DNA 1: CAATCTGAATTCCGGTCTCCC
DNA 2: TGGTGGCTACGACGGGATT

molecular target: T1, RBFOX1 RRM; experiment: EMSA; HiTS-Eq, 1 nM pool, 10 min; buffer printed only for the single-RNA assays: 10 mM Tris pH 7.5, 150 mM NaCl, 3.4 mM EDTA, 0.001% NP-40, 30 C; conditions: tags: His6 N-terminal (pET28a); label: 5' 32P
In short: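 A pool of RNA with 7 randomized nucleotides, 5′-radiolabelled and with DNA-annealed flanks, was equilibrated at 1 nM for 10 min in 50 µL with purified RbFox RRM, wild type or mutant, across increasing protein concentrations. Free RNA was separated by 8% native PAGE, excised, reverse-transcribed, barcoded by PCR and sequenced. Relative association constants were obtained from read-count changes of each RNA species versus the control reaction and normalised to the cognate motif.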

First: B1
Second: B2
The binding signal of the first is lower: 0.0114 KA relative to UGCAUGU for the first, 0.0219 KA relative to UGCAUGU for the second.

First: B3
Second: B4
The binding signal of the first is lower: 0.00302 KA relative to UGCAUGU for the first, 0.0145 KA relative to UGCAUGU for the second.

Compared with B5, B6 is higher in binding signal: 0.0123 KA relative to UGCAUGU for the first, 0.0186 KA relative to UGCAUGU for the second.

First: B7
Second: B8
The binding signal of the first is higher: 0.0086 KA relative to UGCAUGU for the first, 0.00535 KA relative to UGCAUGU for the second.

Compared with B9, B10 is higher in binding signal: 0.00342 KA relative to UGCAUGU for the first, 0.00787 KA relative to UGCAUGU for the second.

First: B11
Second: B12
The binding signal of the first is lower: 0.00671 KA relative to UGCAUGU for the first, 0.0112 KA relative to UGCAUGU for the second.

First: B13
Second: B14
The binding signal of the first is lower: 0.000512 KA relative to UGCAUGU for the first, 0.0179 KA relative to UGCAUGU for the second.

First: B15
Second: B16
The binding signal of the first is higher: 0.0138 KA relative to UGCAUGU for the first, 0.0129 KA relative to UGCAUGU for the second.

Compared with B17, B18 is lower in binding signal: 0.00766 KA relative to UGCAUGU for the first, 0.00487 KA relative to UGCAUGU for the second.

Compared with B19, B20 is higher in binding signal: 0.0103 KA relative to UGCAUGU for the first, 0.0147 KA relative to UGCAUGU for the second.

First: B21
Second: B22
The binding signal of the first is lower: 0.00311 KA relative to UGCAUGU for the first, 0.00877 KA relative to UGCAUGU for the second.

First: B23
Second: B24
The binding signal of the first is higher: 0.0184 KA relative to UGCAUGU for the first, 0.0144 KA relative to UGCAUGU for the second.

First: B25
Second: B26
The binding signal of the first is higher: 0.0151 KA relative to UGCAUGU for the first, 0.0059 KA relative to UGCAUGU for the second.

Compared with B27, B28 is higher in binding signal: 0.0109 KA relative to UGCAUGU for the first, 0.036 KA relative to UGCAUGU for the second.

First: B29
Second: B30
The binding signal of the first is lower: 0.00139 KA relative to UGCAUGU for the first, 0.00365 KA relative to UGCAUGU for the second.

In the case of B31, the binding signal is reported as 0.000685 KA relative to UGCAUGU.
